{"source": "PubChem BioAssay AID1919010", "about": "(Molecular Pharmacology Branch, DTP, NCI, 2023)", "test_system": "Hs578T complex spheroid growth, percent test/control", "assay": "Anticancer human tumor Hs578T cell line growth inhibition [AhR];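 further: luminescent viability signal as a proxy for spheroid growth; spheroids exposed to agents for one week after three days of growth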", "settings": "for viability, T/C: stronger effect = lower value", "from_the_text": "Multicellular complex tumor spheroid response to aryl hydrocarbon receptor antagonists in combination with a variety of drugs and investigational agents in selected tumor cell lines\nThe current study was undertaken to assess response to aryl hydrocarbon receptor antagonists in combination with standard-of-care drugs and investigational agents in solid tumor complex spheroid models. Complex spheroids include a stromal component modeled by human endothelial cells (HUVEC) and fibroblasts modeled by human mesenchymal stem cells (MSCs). The concentration ranges selected for each drug and investigational agent were based upon clinically achievable concentrations if the clinical Cmax of the agent was known.\nCompounds. The drugs and investigational agents: BAY 2416964 (NSC825713), GNF351 (NSC835774), CH-223191 (NSC835775), CPI-455 (NSC825282), aza-TdCyd (NSC777586), decitabine (NSC127716), belinostat (NSC758774), entinostat (NSC756642), pevonedistat (NSC761192), tazemetostat (NSC777109), talazoparib (NSC765396), olaparib (NSC753686), selinexor (NSC780203), nedisertib (M3814, NSC802822), bortezomib (NSC756655), venetoclax (NSC766270), doxorubicin (NSC123127), elimusertib (BAY189344, NSC800525), ceralasertib (AZD6738, NSC777638), TAK-243 (NSC785004), alisertib (NSC759677), etoposide (NSC141540), topotecan (NSC609699), eribulin (NSC707389), gemcitabine (NSC613327), carboplatin (NSC241240), cisplatin (NSC119875), and SN-38 (NSC673596) were obtained from the National Cancer Institute (NCI) Developmental Therapeutics Program Chemical Repository (32). The FDA-approved anticancer drug set is available from the Developmental Therapeutics Program at https://dtp.cancer.gov/organization/dscb/obtaining/available plates.htm. […] The stock solutions were prepared in dimethyl sulfoxide (DMSO, Sigma-Aldrich, St. Louis, MO, cat. D2650), except for the platinum compounds which were prepared in saline (Quality Biological, Gaithersburg, MD, cat. 114-055-101), at 800-fold the tested concentration and stored at -70 degrees C prior to their use. All drugs and investigational agents were tested over a range starting from a high concentration at or near the clinical Cmax and decreasing in half-log increments. If the clinical Cmax for an agent had not been determined, the highest concentration tested was 10 microM (Table 1).\nCell Culture. All cells were maintained in an incubator at 37 degrees C and 5% CO2 with 95% humidity. The PDC lines were cultured according to standard operating procedures established by the NCI PDMR (https://pdmr.cancer.gov). Briefly, all PDCs were thawed and cultured in Matrigel-coated flasks prepared with a working solution of 1X Ham's F-12 nutrient mix, without supplementation (Invitrogen, Waltham, MA, cat. 11765054), 100 U/mL penicillin-streptomycin (Invitrogen, cat. 15140122), and 2.5% Matrigel (Corning Inc., Corning, NY, cat. 354248) for the first three passages. All PDCs were cultured in complete DMEM/F-12 media containing advanced DMEM/F-12 (Invitrogen, cat. 12634028), 4.9% defined fetal bovine serum, heat inactivated (HyClone Laboratories Inc., Logan, UT, cat. SH30070.03HI), 389 ng/mL hydrocortisone (Sigma-Aldrich, cat. H4001), 9.7 ng/mL human EGF recombinant protein (Invitrogen, cat. PHG0313), 23.4 microg/mL adenine (Sigma-Aldrich, cat. A2786), 97.3 U/mL penicillin-streptomycin (Invitrogen, cat. 15140122), 1.9 mM L-glutamine (Invitrogen, cat. 25030081), and 9.7 microM Y-27632 dihydrochloride (Tocris Bioscience, Bristol, United Kingdom, cat. 1254). The PDCs were cultured in complete DMEM/F12 media without 10 microM Y-27632 dihydrochloride for at least two passages prior to the screen. The established cell lines NCI-H1341 and […] were cultured in DMEM/F-12, HEPES (Invitrogen, cat. 11330032), 5% defined fetal bovine serum (HyClone Laboratories Inc., cat. SH30070.03), ITS premix universal culture supplement [insulin (5 microg/mL), transferrin (5 microg/mL), and selenious acid (5 ng/mL)] […]", "note": "Certain results were filed several times, with different values. The list is limited to them. The source may hold further records. Values that stand side by side are repeats in other runs, samples, wells, individuals or studies. Counts like (3×) say how often a value occurs here."}
{"smiles": "Nc1ccn(C2OC(CO)C(O)C2(F)F)c(=O)n1", "note": "(stereo not drawn)", "values": [{"measurement": "IC50", "setting": "compound alone", "value": "6.35 µM, > 10 µM, < 31.6 nM"}]}
{"smiles": "CC(CO)NC(=O)c1cc(-c2ccc(Cl)cc2)nn(-c2cnn(C)c2)c1=O", "note": "(stereo not drawn)", "values": [{"measurement": "viability, T/C", "setting": "compound alone 0.1 µM", "value": "101, 95.9, 106 (3×), 104, 113 (2×), 111, 105, 110 (3×), 112 (2×), 119, 103 (2×), 125, 108, 117%"}, {"measurement": "viability, T/C", "setting": "compound alone 3.16 µM", "value": "113, 106 (2×), 96.4, 118 (3×), 96.9, 124, 115, 99.9, 101 (2×), 121, 104, 114, 111, 116, 110%"}, {"measurement": "viability, T/C", "setting": "compound alone 10 µM", "value": "95.7, 67.8, 88.5, 92 (2×), 110, 114 (2×), 101, 94.8, 107, 89.8, 82.1, 94.9, 103, 111, 102, 106, 108%"}]}
{"smiles": "Cc1ccccc1N=Nc1ccc(NC(=O)c2ccnn2C)c(C)c1", "values": [{"measurement": "viability, T/C", "setting": "compound alone 0.316 µM", "value": "96.9, 80.4, 101 (2×), 93.3, 100, 104 (3×), 93.4, 96.2, 92.3, 105, 108 (2×), 107, 99.7, 109, 110, 95.3%"}, {"measurement": "viability, T/C", "setting": "compound alone 3.16 µM", "value": "101, 85.2, 82.4, 82.8, 82.6, 87.4, 91.3, 96.1, 83.7, 92, 87.6, 95.8, 109, 85.7, 91.1, 99.2, 95.6, 90.1, 83.3, 82%"}]}
{"smiles": "Cc1cncc(-c2nc(NCCc3c[nH]c4ccccc34)c3ncn(C(C)C)c3n2)c1", "values": [{"measurement": "viability, T/C", "setting": "compound alone 1 µM", "value": "106 (2×), 104 (2×), 111 (4×), 89.7, 109, 101 (2×), 100, 102 (2×), 112, 99.2, 97.2, 103, 86%"}, {"measurement": "viability, T/C", "setting": "compound alone 3.16 µM", "value": "63.6, 72.7, 72.3, 70.3, 57, 70.5, 69.6, 56, 60.9, 66.3, 66.9, 57.2, 71.8, 72.4, 67.1, 68.3, 57.3, 53.3, 45.6, 51%"}]}
